# Experimental data reported in the supplement of paper PMC10126150.
# Values marked as one replicate rest on one cluster of the flow cell; about a third of the high ones do not repeat.
# Test system: ATP
# Test: switch fluorescence ratio, 500 uM ATP over buffer (Cy3 cluster intensity, sum of 5 cycles each) (fold (ratio)); higher = stronger signal-on switching upon ATP binding; sequences stand for … in TCGTCGGCAGCGTCAGATGTGTATAAGAGACAGTTTTTTTTTTTTTTTTTTTTTTTTT…TC
# Conditions: aptamer strand: ATP DNA aptamer (quencher-CACCTGGGGGAGTATTGCGGAGGAAGG + anchor), 100 nM annealed; ATP concentration: 500 uM; one replicate
# In short: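 After annealing to 100 nM quencher-labelled ATP aptamer, Cy3-labelled switching-strand clusters on a modified Illumina MiSeq flow-cell were imaged in selection buffer. A second image followed after 15 min with 500 uM ATP at 22 °C, and five such buffer/ATP cycles were done, each separated by NaOH stripping and re-annealing. The fluorescence ratio, averaged per switch-domain sequence, is summed target-cycle over summed buffer-cycle Cy3 intensity per cluster, with clusters outside 100-1000 RFU excluded.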
# 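Note: ATP exposure 15 min at 22 °C before imaging.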
row,Sequence,switch fluorescence ratio
1,AATGCCGGTA,0.996
2,TTGGACGTAA,1.88
3,CAGGGATCCT,1.12
4,GTGTATAGCC,0.988
5,TAACCCCCGC,1.7
6,CTAAGGGGTC,0.998
7,TCTGTACG,0.985
8,CGCTGCTGTA,1.03
9,TGTACCTTAT,1.03
10,GCCGTCCGC,0.989
11,GCTAAAGGTT,0.982
12,AAGGCTACC,1.04
13,TAGGGTGAAT,0.971
14,CAAAGTAAGG,1.04
15,TTAGAGGCT,0.993
16,CTAAGACATG,1.04
17,CAGGAGATAT,0.968
18,AGCTCGAAGT,1
19,CGGTTAATAT,1.22
20,ATATTCAAGT,1.01
21,AAAGGTTAT,0.983
22,TCGTTATAGC,1.07
23,AGAGTAACAT,0.979
24,AAGCCCGAAT,1
25,CTCCTAATTG,1.1

row,Sequence,switch fluorescence ratio
1,TCCGTTAACA,1.06
2,ACGCGGGGGC,1.05
3,ATTCGATGCT,0.992
4,ATAGTCGGT,0.961
5,CTAGGGTCGC,0.968
6,AGGGTGGCAC,0.955
7,GATATATGGA,1.01
8,GAAATCAGG,1.01
9,ACGGGGATAA,1.03
10,GACATTTCAG,1
11,GGTCTAGTTC,0.988
12,ACTAAAGTA,1
13,TGACTTCTAG,0.99
14,CGAGGTTGGA,1.05
15,ATTATTGTT,0.987
16,TCATAGCAAT,3.41
17,GAAACATTTA,1.01
18,AGATATGCT,0.963
19,GATCACATGG,1.03
20,AGAAGGGATC,1.02
21,GTTCAAAGGG,0.985
22,TCAGGGGGG,1.12
23,TCGTATACCA,1.04
24,TCGCCGTGGT,1.08
25,GTATATATGG,1.07

row,Sequence,switch fluorescence ratio
1,AGTTCAGGGT,0.979
2,GCGGATAGGC,1.01
3,GGCATACTTC,1.06
4,TTATTGAGTG,0.92
5,ATTAAGGAT,1.03
6,GTTGCAATTA,1.06
7,CTGCTGGTTT,1.03
8,GGAAATTCTG,0.962
9,CGATATCGAA,0.977
10,CAGACAAGGT,1.03
11,AGCTGGGGCA,1
12,GATGAATAAG,0.941
13,AGGATGCATC,0.959
14,GCGCCTAAAG,1.05
15,CAGGGTCCGA,0.99
16,ACATCTCGAC,0.998
17,TGTTCGATCG,0.998
18,TTCTCACGTT,1.04
19,AACTGGAAAC,1.14
20,CGGAATTGAA,1.03
21,ATTGAATATG,1.04
22,CGGTTCGCTC,1.01
23,ACTGAGCC,1.08
24,GCTCTTTAAA,1
25,TCTAGCTTAT,0.99

row,Sequence,switch fluorescence ratio
1,TATCATGGG,0.973
2,TGGTTGCGAC,0.974
3,GCGTTTCCCA,0.952
4,AAAGTTGCAC,1.02
5,CGGCTGGAAG,0.992
6,CCCTTTAGGT,1.01
7,GGTAGTACT,1.02
8,TGCTTTTCAG,0.998
9,GTTTTACTGT,0.989
10,GGGGACGTCC,0.98
11,GAGGACGCTG,0.931
12,AAACGCGCGC,1.03
13,CTTGGTTGTT,1.03
14,GTCTACGCGG,1.06
15,GAATGCGGTG,1.01
16,GAAGGATATG,0.966
17,CTCTTGACTG,1.03
18,TACGAATAGC,1.12
19,ATGGCGTTGT,1.05
20,TGAGCATAGG,1.04
21,TTATCTACTG,1.1
22,TTGTCTACTG,0.969
23,CAATTTGCA,0.996
24,GAACCTGCGT,0.949
25,TAACCCTATC,1.04
